Laboratory results from PubChem BioAssay AID588855 (National Center for Advancing Translational Sciences (NCATS), 2011).
About 5,000 (1.2%) of roughly 410,000 compounds were called active. The inconclusive results got no clear call from the source; some entries with a clear call stand among them for comparison. Calls come from the whole dose curve; as a rule, active = well fitted inhibition curve with a large enough effect; inconclusive = small, poorly fitted or top-dose-only effect; inactive = no such curve, though single readings can be large or run the other way. Where the call is inconclusive, the potency comes from a doubtful curve fit.
% is set by controls: 0 for no effect and ±100 for the full control effect; potency is the fitted concentration of half-maximal effect; tags give direction and shape of the fitted curve.

Assay: qHTS for Inhibitors of TGF-b; note: nearly all actives have a fitted effect of over 65% in size
Settings: HepG2 CAGA-GFP TGF-b/SMAD3 reporter, GFP fluorescence, 18 h, TGF-beta stimulated, 500 pg/mL final; series mostly up to 46.1 µM; activity, negative = inhibition: at the top concentration
Procedure, shortened: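 GFP signal (ex488/em500-530) from TGF-beta-stimulated HEPG2 CAGA-GFP cells, 500 pg/mL final, 18 h at 37 degrees C in DMEM plus 1% FBS, normalized to unstimulated and DMSO-stimulated controls.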
In the case of `CCN(CC)C(=O)[C@H]1CC(CC(=O)NCc2cccc(C(F)(F)F)c2)C(=O)N2CCc3c([nH]c4ccccc34)[C@]12C` (stereo partly specified), the Potency is reported as active: 12.6 µM. For `CNS(=O)(=O)c1cccc(C(=O)OCc2cc(=O)oc3c(C)c(O)ccc23)c1`, the Potency was inconclusive: 35.5 µM [inhibitor, single point]. With `O=C1/C(=C/c2cccc([N+](=O)[O-])c2)CCc2ccccc21` the Potency was inconclusive: 17.8 µM [inhibitor, single point]. In the case of `O=C(CSc1nnc(Nc2ccccc2)s1)Nc1cccc(S(=O)(=O)N2CCCCC2)c1`, the Potency is reported as inconclusive: 35.5 µM [inhibitor, single point]. With `O=C(COc1ccc(F)cc1Br)NCC1(N2CCOCC2)CCCCC1` the Potency was inconclusive: 35.5 µM [inhibitor, single point]. In the case of `CC(NC(=S)Nc1ccc(S(=O)(=O)N2CCOCC2)cc1)C1CC2CCC1C2` (stereo unspecified), the Potency is reported as inconclusive: 35.5 µM [inhibitor, single point]. With `CCCN1CCC(NC(=O)c2cccc(Oc3ccccc3)c2)CC1` the “activity, negative = inhibition” value was inactive: 22.3%. In the case of `COc1cc2c(=O)c(C(=O)c3ccc(C)c(C)c3)cn(Cc3ccccc3F)c2cc1OC`, the Potency is reported as inconclusive: 7.08 µM [inhibitor, partial curve]. In the case of `CC(C)CN(C(=O)C1CCC1)c1c(N)n(Cc2ccccc2)c(=O)[nH]c1=O`, the “activity, negative = inhibition” value is reported as inactive: -5.03%. In the case of `O=C(Cc1cccs1)NC1CCCC1`, the “activity, negative = inhibition” value is reported as inactive: -5.83%. For `CSc1nc2nccc(-c3ccc(Oc4ccccc4)cc3)n2n1`, the “activity, negative = inhibition” value was inactive: 1.96%. In the case of `C=CCNC(=O)c1ccc2nc(-c3ccco3)c(-c3ccco3)nc2c1`, the Potency is reported as inconclusive: 2.51 µM [inhibitor, single point]. In the case of `O=C(c1ccc(CN2CCc3ccccc3C2)cc1)N1CCCCC1`, the “activity, negative = inhibition” value is reported as inactive: 13.4%. For `CCc1ccc(CNC(=O)c2c3c(nc4ccccc24)C(=O)N(C2CCCCC2)C3)cc1`, the Potency was inconclusive: 12.6 µM [inhibitor, partial curve, poor fit]. In the case of `CCOC(=O)c1c(C)[nH]c(C)c1S(=O)(=O)N(C)CC(=O)Nc1cc(Cl)ccc1C`, the Potency is reported as inconclusive: 0.112 µM [inhibitor, full curve]. In the case of `CCOC(=O)c1ccc(N2C(=O)c3[nH]nc(-c4ccc(C)cc4)c3C2c2ccc(O)c(OCC)c2)cc1` (stereo unspecified), the Potency is reported as inconclusive: 15.8 µM [inhibitor, single point]. For `Cc1ccc(-n2c(SCC(=O)Nc3ncc(Cl)cc3Cl)nc3ccccc32)cc1`, the Potency was inconclusive: 11.2 µM [inhibitor, single point]. In the case of `Cc1cccc(C(=O)CC(=O)c2cc(Cl)ccc2O)c1`, the Potency is reported as inconclusive: 22.4 µM [inhibitor, single point]. With `ON=C1c2ccccc2-c2ccc(O)cc21` the Potency was inconclusive: 20 µM [inhibitor, single point]. In the case of `COc1ccc(F)cc1C(=O)C1CCCN(Cc2cccn2-c2cccnc2)C1` (stereo unspecified), the Potency is reported as inconclusive: 17.8 µM [inhibitor, single point]. For `COCCNC(=O)c1ccc2c(=O)n(CCc3ccccc3)c(SCC(=O)CC(=O)OC)nc2c1`, the Potency was inconclusive: 20 µM [inhibitor, partial curve, poor fit]. With `COCC1CCCN(C(=O)c2ccc3nc(Cc4cccc(Cl)c4)oc3c2)C1` (stereo unspecified) the “activity, negative = inhibition” value was inactive: 0%. For `Cc1ccccc1CN(CC(=O)Nc1cccc([N+](=O)[O-])c1)S(=O)(=O)c1ccc(Cl)cc1`, the Potency was active: 11.2 µM. For `CC[n+]1ccc(/C=C/c2ccc(N(C)C)cc2)c2ccccc21`, the Potency was active: 6.31 µM. For `COc1cccc(C(=O)CN2C(=O)C(C)(C)Oc3ccc(C(=O)N4CCCCCC4)cc32)c1`, the Potency was inconclusive: 35.5 µM [inhibitor, partial curve, poor fit]. In the case of `O=C(Nc1ccccc1N1CCOCC1)C1=NN(c2ccccc2)C(=O)CC1`, the Potency is reported as inconclusive: 35.5 µM [inhibitor, single point]. For `Cc1ccc(NC(=S)NNC(=O)Nc2ccccc2)cc1`, the Potency was inconclusive: 6.31 µM [inhibitor, single point]. In the case of `COc1ccc(-c2noc(N3CCC(C(=O)N4CCN(c5ccccc5OC)CC4)CC3)n2)cc1`, the Potency is reported as inconclusive: 15.8 µM [inhibitor, partial curve, poor fit]. For `COc1ccc2[nH]c3c(N4CCN(Cc5ccc6c(c5)OCO6)CC4)ncnc3c2c1`, the Potency was inconclusive: 0.794 µM [inhibitor, full curve, poor fit]. With `CCOc1cc(CNC2CCCC2)c(Cl)cc1OCC(=O)Nc1ccccc1` the Potency was inconclusive: 11.2 µM [inhibitor, partial curve, poor fit]. For `C/C(Cn1nnc([N+](=O)[O-])n1)=N\NC(=O)c1ccc(O)cc1O`, the Potency was inconclusive: 14.1 µM [inhibitor, partial curve, poor fit]. In the case of `O=C1OC(c2ccccc2)(c2cc(Br)ccc2O)c2ccccc21` (stereo unspecified), the Potency is reported as active: 20 µM. For `CCOc1ccccc1CNC(=O)Cc1ccc(NC(=O)N2CCCCc3ccccc32)cc1`, the Potency was inconclusive: 0.112 µM [inhibitor, full curve, poor fit]. In the case of `O=C(OCc1ccccc1)N1CCOCCN(C(=O)OCc2ccccc2)CCOCC1`, the “activity, negative = inhibition” value is reported as inactive: 1.27%. For `CC1CCN(CC(=O)Nc2ccc(S(=O)(=O)N3CCCC(C)C3)cc2)CC1` (stereo unspecified), the Potency was inconclusive: 10 µM [inhibitor, partial curve, poor fit]. With `COc1ccc(NC(=O)C[C@H]2C(=O)N(c3ccc(Br)cc3)C[C@@H]2CSC)cc1` the “activity, negative = inhibition” value was inactive: -9.12%. In the case of `O=C(NCCN1CCN(c2ccccc2)CC1)Nc1cccc(Br)c1`, the Potency is reported as “inactive”. With `CCCCCC(=O)N1CCN(S(=O)(=O)c2ccc3c(c2)OCCCO3)CC1` the Potency was inconclusive: 1.26 µM [inhibitor, partial curve]. For `O=C1OCCN1C(=O)[C@H]1[C@H](c2ccc([N+](=O)[O-])cc2)C(c2ccc(F)cc2)=NN1c1ccc(Br)cc1`, the Potency was inconclusive: 10 µM [inhibitor, partial curve]. In the case of `CCC(CC)COC(=O)C1=C(C)NC(=O)NC1c1cccc([N+](=O)[O-])c1` (stereo unspecified), the Potency is reported as inconclusive: 14.1 µM [inhibitor, single point]. For `C[C@@H](c1ccccc1)N1C[C@H]2CCCN2c2cc(Br)ccc2S1(=O)=O`, the Potency was inconclusive: 14.1 µM [inhibitor, single point].
